About 6,400 (1.6%) of roughly 410,000 compounds were called active. Inconclusive means that the source gave no clear call. Such entries were picked first, then a sample of the others. Calls follow the shape of the dose curve; as a rule, active = well fitted inhibition curve with a large enough effect; inconclusive = small, poorly fitted or top-dose-only effect; inactive = no such curve, though single readings can be large or run the other way. Where the call is inconclusive, the potency comes from a doubtful curve fit.
Each compound was assayed against Glucagon-like peptide 1 receptor (Homo sapiens) (UniProt P43220) (assay: qHTS of GLP-1 Receptor Inverse Agonists (Inhibition Mode)). Conditions: HEK293 GLP-1R CRE-luciferase, luminescence, 24 h, GLP-1R form is constitutively active; activity change, negative = inhibition: at 38.3 µM (top of the series) unless noted.
UniProt P43220, sequence (P43220 whole entry, looked up): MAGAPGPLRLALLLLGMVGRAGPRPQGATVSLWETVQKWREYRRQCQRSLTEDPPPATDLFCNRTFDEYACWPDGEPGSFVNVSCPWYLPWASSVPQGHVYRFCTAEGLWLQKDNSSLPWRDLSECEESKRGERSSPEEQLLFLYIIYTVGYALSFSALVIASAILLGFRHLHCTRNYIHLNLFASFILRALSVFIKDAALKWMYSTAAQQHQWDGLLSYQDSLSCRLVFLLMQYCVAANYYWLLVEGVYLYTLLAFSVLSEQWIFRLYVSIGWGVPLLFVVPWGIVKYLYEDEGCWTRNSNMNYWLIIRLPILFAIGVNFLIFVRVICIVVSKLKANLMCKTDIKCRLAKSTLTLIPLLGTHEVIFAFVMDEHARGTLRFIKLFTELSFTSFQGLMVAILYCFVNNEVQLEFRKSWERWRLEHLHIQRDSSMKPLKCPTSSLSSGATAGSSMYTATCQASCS
Method in brief: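 Stable HEK293 clone (constitutively active GLP-1R + cAMP-response luciferase); 200 cells/uL plated, 12 h pre-culture, compound 24 hr, 37 deg C/5% CO2; detection reagent 12 min RT; luminescence.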
% is scaled to controls: 0 for no effect and ±100 for the full control effect; potency is read from the fitted curve at half-maximal effect; tags tell the direction and shape of the fitted curve.
Also: nearly all actives have a fitted effect of over 55% in size.

Activity change, negative = inhibition, inactive:
Cn1c(=O)c2[nH]c(C3CCC3)nc2n(C)c1=O 10.5%
O=C1C(c2cccc(Br)c2)N(CCc2ccccc2)C(=O)CN1C1CCCCC1 (configuration not stated) 1.12%
CCN=C1S/C(=C\c2cn(C(C)=O)nc2-c2ccccc2)C(=O)N1CC 6.95%
Cc1ccc(C(=O)Nc2ccc(S(=O)(=O)Nc3cnc4ccccc4n3)cc2)cc1 8.69%
CC12CC3(C)CC(C)(C1)CC(C(=O)NC(=S)N1CCOCC1)(C2)C3 4.57%
O=C(Cn1c(=O)c2ccccc2n(CC(=O)Nc2ccc(Cl)cc2)c1=O)NCCc1ccccc1 -2.37%
CCc1ccccc1NC(=O)Cn1c(=O)n(CCCS(=O)(=O)C2CCCCC2)c(=O)c2ccccc21 -10.1%
CCc1ccc(-n2nc3ccc(NC(=O)c4ccc5c(c4)OCO5)cc3n2)cc1 3.22%
Cn1cnc([N+](=O)[O-])c1Sc1ncccc1N 4.7%
O=c1c2ccccc2nnn1CSc1ncnc2ccccc12 11.1%
O/N=C(\Cn1ccnc1)c1ccccc1 7.27%
Oc1c(C(c2ccccn2)N2CCC(Cc3ccccc3)CC2)cc(Cl)c2cccnc12 (configuration not stated) 29.6% [at 7.66 µM]
COc1ccc(OCCCNCCc2ccccc2)cc1 6.76%
COc1ccc(-c2c(C)nn3c(N4CCC5(CC4)OCCO5)cc(C)nc23)cc1OC 16.1%
COc1cccc(CNC(=O)CSc2ncc3c(n2)-c2cc(Cl)ccc2N(C)S3(=O)=O)c1 0.546%
Cc1coc2c(C)c3oc(=O)c(CC(=O)NCc4ccccc4)c(C)c3cc12 4.91%
O=C(Nc1ccc2nc(SCCOc3ccccc3)sc2c1)c1cccs1 -3.67%
COc1ccccc1CNC(=O)C1CCN(S(=O)(=O)c2c(C)noc2/C=C/c2c(C)cc(C)cc2C)CC1 8.72%

Potency, inactive:
Cc1cccc(CNS(=O)(=O)c2csc(C(N)=O)c2)c1

Potency, inconclusive:
Nc1nc(=O)n(C2OC(CO)C(O)C2O)cc1F (configuration not stated) 1.12 µM [inhibitor, full curve, poor fit]
CCCCNC(=O)c1onc(CCl)c1C(=O)OC 28.2 µM [inhibitor, single point]
COc1ccc(N2CCN(C(=O)CSc3nc4[nH]ncc4c(=O)n3-c3ccc(Br)cc3)CC2)cc1 31.6 µM [inhibitor, single point]
Cc1cc(C)cc(OCc2nnc(SCC(=O)N3CCCCC3)o2)c1 0.891 µM [inhibitor, full curve, poor fit]
CC1(C(=O)Nc2ccc(Cl)c(Cl)c2)CCN1C(=O)Cc1cccc2ccccc12 (configuration not stated) 28.2 µM [inhibitor, single point]
O=S(=O)(NCc1ccccc1)c1ccc(Cl)cc1 28.2 µM [inhibitor, single point]
CC(=O)c1ccc(OCCCC(=O)OCC(=O)N2CCN(c3ccccc3)CC2)cc1 0.891 µM [inhibitor, full curve, poor fit]
CCOC(=O)c1c(C)[nH]c(CCC(=O)NCCCN2CCN(c3cc(Cl)ccc3C)CC2)c1C 12.6 µM [inhibitor, single point]
COc1ccc(C(=O)C2CCCN(Cc3c[nH]c4ccccc34)C2)c(OC)c1 (configuration not stated) 14.1 µM [inhibitor, partial curve, poor fit]
C=C(C)[C@@H]1CC=C(CN2CCN(Cc3ccccc3)CC2)CC1 11.2 µM [inhibitor, partial curve, poor fit]
COc1ccc(Cn2c(=O)[nH]c3cc(C(=O)NC4CCN(Cc5ccccc5)CC4)ccc32)cc1 12.6 µM [inhibitor, single point]
CCCCCc1c(-c2ccccc2OC)ncn1CCc1ccccc1OC 12.6 µM [inhibitor, partial curve, poor fit]
Cc1cccc(-c2noc(CNC(=O)c3ccc4c(c3)OCO4)n2)c1 28.2 µM [inhibitor, single point]
C1=C(c2sc3ccccc3c2-c2ccc(OCCN3CCOCC3)cc2)CCCC1 5.62 µM [inhibitor, full curve, poor fit]
Cc1ccc(C)n1-c1c(C(=O)NCC(C)c2ccccc2)sc2ncccc12 (configuration not stated) 22.4 µM [inhibitor, partial curve, poor fit]
Cc1ccc(S(=O)(=O)NC23CC4CC(CC(C4)C2)C3)cc1 28.2 µM [inhibitor, single point]
COc1ccc(C(=O)N(Cc2ccc(N(C)C)cc2)Cc2ccco2)cc1Cl 31.6 µM [inhibitor, single point]
CCOC(=O)C1=C[C@@H](C(C)(C)C)N(S(=O)(=O)c2ccc(C)cc2)[C@H]1c1ccc(C)cc1 28.2 µM [inhibitor, single point]
COCCNCCOCCOc1ccc(Cl)c(C)c1 11.2 µM [inhibitor, partial curve, poor fit]
Cc1cc(-c2ccc(C)c(S(=O)(=O)Nc3ccccc3C(F)(F)F)c2)on1 11.2 µM [inhibitor, partial curve, poor fit]
O=C(NC(=S)NCc1ccccc1)c1cccc([N+](=O)[O-])c1 10 µM [inhibitor, single point]
CC(C)N(Cc1ccccc1)C(=O)c1ccc2c(c1)OCO2 28.2 µM [inhibitor, single point]
COc1ccc(N(C(=O)c2snc(C(N)=O)c2N)C(C(=O)NCc2ccc(F)cc2)c2ccc(C)o2)c(OC)c1 (configuration not stated) 15.8 µM [inhibitor, single point]
Cc1ccc2c(CC(=O)NCc3ccccc3)coc2c1C 5.01 µM [inhibitor, full curve, poor fit]
CC(C)Cn1c(SCC(=O)N2CCCCC2)nc2ccccc2c1=O 28.2 µM [inhibitor, single point]
Cc1ccc(C(=O)C(OC(=O)c2c(C)cc(=O)oc2C)c2ccccc2)cc1 (configuration not stated) 28.2 µM [inhibitor, single point]
CCOC(=O)C1OC1(c1ccccc1)c1ccccc1 (configuration not stated) 31.6 µM [inhibitor, single point]
CC(=O)Nc1cccc(-c2ccnc3c2CC(C)(C(=O)Nc2ccc4c(c2)OCO4)O3)c1 (configuration not stated) 1.26 µM [inhibitor, full curve, poor fit]
C=CCn1c(C)cc(C(=O)COC(=O)/C=C/c2ccc(OC)cc2)c1C 28.2 µM [inhibitor, single point]
CN(C)Cc1csc(Nc2ccc(C(=O)c3ccccc3)cc2)n1 3.16 µM [inhibitor, full curve]
Cc1ccc(C)c(N2CCN(C(=O)Nc3ccc4c(c3)N(C)C(=O)CS4)CC2)c1 10 µM [inhibitor, partial curve, poor fit]
CC1CCCC(C)N1C(=O)COC(=O)c1c[nH]c2ccccc12 (configuration not stated) 22.4 µM [inhibitor, single point]
O=S(=O)(N/N=C/c1cccc(OC2CSC2)c1)c1ccccc1 10 µM [inhibitor, partial curve]
CCc1ccc(NC(=O)c2ccc(F)c(S(=O)(=O)NC3CCCCCC3)c2)cc1 8.91 µM [inhibitor, partial curve, poor fit]
Cc1c(Br)c([N+](=O)[O-])nn1CC(=O)Nc1ccc(Cc2ccncc2)cc1 11.2 µM [inhibitor, partial curve, poor fit]
O=C(C1=C[C@H](C2CCCCC2)C[C@H](OCc2ccc(CO)cc2)O1)N1CCN(Cc2ccccc2)CC1 17.8 µM [inhibitor, single point]
CC1(C)CC(=O)C2=C(C1)Nc1cc(Cl)ccc1S2 11.2 µM [inhibitor, partial curve, poor fit]
Cc1cc(C)c(C#N)c(SCc2ccccc2C)n1 12.6 µM [inhibitor, single point]
O=C(COc1ccccc1)Nc1ccc(S(=O)(=O)N2CCCCCC2)cc1 28.2 µM [inhibitor, single point]
COc1ccccc1CNC(=O)c1c(-c2ccccc2)nn(-c2ccccc2)c1C 12.6 µM [inhibitor, partial curve, poor fit]
CSCC[C@H](NC(=O)N1CCn2c1nc1ccccc12)C(=O)NCc1ccccc1 11.2 µM [inhibitor, partial curve, poor fit]
COc1ccc(-c2csc3ncn(-c4ccc(C)cc4)c(=O)c23)cc1OC 20 µM [inhibitor, single point]
COc1ccc(/C=N/NC(=O)c2ccc(Cl)cc2)cc1COC(C)=O 28.2 µM [inhibitor, single point]
O=C(Nc1ccc(C(F)(F)F)cc1)c1cc(S(=O)(=O)NC2CCCCC2)ccc1F 7.94 µM [inhibitor, partial curve, poor fit]
CCc1ccccc1N(C)C(=O)CCc1nc(-c2ccc(C)cc2)no1 10 µM [inhibitor, single point]

Potency, active:
CC(NCc1ccc(-c2ccccc2)cc1)C(O)c1ccccc1 (configuration not stated) 7.94 µM
O=C(Nc1ccccc1Cl)c1ccccc1Oc1ccc(C(F)(F)F)cc1[N+](=O)[O-] 7.08 µM
CCCn1c(COc2ccccc2OC)nc2ccccc21 10 µM

From PubChem BioAssay AID624417 (National Center for Advancing Translational Sciences (NCATS), 2012)
